Consider one molecule from the supplement of paper PMC8728848.

Some of the results follow.

What all share (assay): glycan array binding signal (z-score within array); higher = stronger binding
Holding throughout (conditions): glycan notation: IUPAC condensed, linker removed

Experiment [1] concerns the target Gal(b1-4)GlcNAc(b1-2)Man(a1-3)[Gal(b1-4)GlcNAc(b1-2)Man(a1-6)]Man(b1-4)GlcNAc(b1-4)[Fuc(a1-6)]GlcNAc. In outline:
(§1)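 Columns mapping to the same glycan were averaged after glycan names were converted to IUPAC-condensed notation. The data come from 3228 arrays in the Consortium for Functional Glycomics database, limited to those with an available protein sequence. Binding is reported as a within-array Z-score averaged across arrays of one protein sequence and across linkers.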

Experiment [2] has as its target Gal(b1-4)GlcNAc(b1-2)Man(a1-3)[Gal(b1-4)GlcNAc(b1-2)Man(a1-6)][Gal(b1-4)GlcNAc(b1-4)]Man(b1-4)GlcNAc(b1-4)[Fuc(a1-6)]GlcNAc. In outline:
as §1

Experiment [3] deals with Gal(b1-4)GlcNAc(b1-2)Man(a1-3)[Gal(b1-4)GlcNAc(b1-2)Man(a1-6)][GlcNAc(b1-4)]Man(b1-4)GlcNAc(b1-4)[Fuc(a1-6)]GlcNAc. In outline: as §1
The target of experiment [4] is Gal(b1-4)GlcNAc(b1-2)Man(a1-3)[GlcNAc(b1-2)Man(a1-6)]Man(b1-4)GlcNAc(b1-4)GlcNAc. In outline:
as §1

The target of experiment [5] is Gal(b1-4)GlcNAc(b1-2)Man(a1-3)[GlcNAc(b1-4)][Gal(b1-4)GlcNAc(b1-2)Man(a1-6)]Man(b1-4)GlcNAc(b1-4)GlcNAc. Summed up:
as §1

In experiment [6] the target is Gal(b1-4)GlcNAc(b1-2)Man(a1-3)[Man(a1-6)]Man(b1-4)GlcNAc(b1-4)GlcNAc. Summed up: as §1
Experiment [7] concerns the target Gal(b1-4)GlcNAc(b1-2)Man(a1-6)Man(b1-4)GlcNAc(b1-4)GlcNAc. Summed up: as §1
The target of experiment [8] is Gal(b1-4)GlcNAc(b1-2)Man(a1-6)[GlcNAc(b1-2)Man(a1-3)]Man(b1-4)GlcNAc(b1-4)GlcNAc. In outline: as §1
Experiment [9] concerns the target Gal(b1-4)GlcNAc(b1-2)Man(a1-6)[Man(a1-3)]Man(b1-4)GlcNAc(b1-4)GlcNAc. In outline:
as §1

Experiment [10] concerns the target Gal(b1-4)GlcNAc(b1-2)[Gal(b1-4)GlcNAc(b1-4)]Man(a1-3)[Gal(b1-4)GlcNAc(b1-2)Man(a1-6)]Man(b1-4)GlcNAc(b1-4)GlcNAc. In outline: as §1
Experiment [11] has as its target Gal(b1-4)GlcNAc(b1-2)[Gal(b1-4)GlcNAc(b1-4)]Man(a1-3)[Gal(b1-4)GlcNAc(b1-2)[Gal(b1-4)GlcNAc(b1-6)]Man(a1-6)]Man(b1-4)GlcNAc(b1-4)GlcNAc. In outline:
as §1

Experiment [12] has as its target Gal(b1-4)GlcNAc(b1-2)[Gal(b1-4)GlcNAc(b1-4)]Man(a1-3)[GlcNAc(b1-4)][Gal(b1-4)GlcNAc(b1-2)Man(a1-6)]Man(b1-4)GlcNAc(b1-4)GlcNAc. In outline:
as §1

Experiment [13] concerns the target Gal(b1-4)GlcNAc(b1-2)[Gal(b1-4)GlcNAc(b1-4)]Man(a1-3)[GlcNAc(b1-4)][Gal(b1-4)GlcNAc(b1-2)[Gal(b1-4)GlcNAc(b1-6)]Man(a1-6)]Man(b1-4)GlcNAc(b1-4)GlcNAc. Summed up:
as §1

Experiment [14] addresses Gal(b1-4)GlcNAc(b1-2)[Gal(b1-4)GlcNAc(b1-6)]Man(a1-6)[Gal(b1-4)GlcNAc(b1-2)Man(a1-3)]Man(b1-4)GlcNAc(b1-4)GlcNAc. In outline:
as §1

In experiment [15] the target is Gal(b1-4)GlcNAc(b1-2)[Gal(b1-4)GlcNAc(b1-6)]Man(a1-6)[Gal(b1-4)GlcNAc(b1-2)Man(a1-3)]Man(b1-4)GlcNAc(b1-4)[Fuc(a1-6)]GlcNAc. In outline:
as §1

Experiment [16] addresses Gal(b1-4)GlcNAc(b1-2)[Gal(b1-4)GlcNAc(b1-6)]Man(a1-6)[GlcNAc(b1-4)][Gal(b1-4)GlcNAc(b1-2)Man(a1-3)]Man(b1-4)GlcNAc(b1-4)GlcNAc. In outline:
as §1

Experiment [17] deals with Gal(b1-4)GlcNAc(b1-2)[Gal(b1-4)GlcNAc(b1-6)]Man(a1-6)[GlcNAc(b1-4)][Gal(b1-4)GlcNAc(b1-2)[Gal(b1-4)GlcNAc(b1-4)]Man(a1-3)]Man(b1-4)GlcNAc(b1-4)[Fuc(a1-6)]GlcNAc. In outline: as §1
The target in experiment [18] is Gal(b1-4)GlcNAc(b1-3)Gal(b1-3)GalNAc. In outline:
as §1

Experiment [19] concerns the target Gal(b1-4)GlcNAc(b1-3)Gal(b1-3)GlcNAc. Summed up: as §1

B1: Cohesin-marm-DC-ASGPR (protein)
chain: LDITSHHHHHHDDLDAVRIKVDTVNAKPGDTVRIPVRFSGIPSKGIANCDFVYSYDPNVLEIIEIEPGDIIVDPNPDKSFDTAVYPDRKIIVFLFAEDSGTGAYAITKDGVFATIVAKVKEGAPNGLSVIKFVEVGGFANNDLVEQKTQFFDGGVNVGDTTEPATPTTPVTTPTTTDDLDAASSKFQRDLVTLRTDFSNFTSNTLAEIQALTSQGSSLQETIASLKAEVEGHKQELQAGASELQEHNKQKAHLGRCPHTCVCPSSFVCVPVHSEILLRVQQLVQDLNKLSCQVAILKNNATTERTCCPINWVEHQGSCYWFSRSGKTWPEAERYCQLENTHLVVINSREEQNFVQAHLGSAYTWMGLSDPEGVWKWVDGTDYSSGFQNWKPGQPDDWQGHGLGGGEDCAHFHPDGRWNDDVCQRSYHWVCEAGLTQASQDSHAS
On to B1, for which the “glycan array binding signal (z-score)” value is -0.273 in experiment [1]; -0.3 in experiment [2]; -0.31 in [3]; -0.287 in experiment [4]; -0.308 in experiment [5]; -0.114 in experiment [6]. The “glycan array binding signal (z-score)” value is 0.025 in experiment [7]; -0.285 in experiment [8]; -0.309 in experiment [9]; -0.306 in experiment [10]; -0.31 in [11]; -0.275 in [12]. Besides, the “glycan array binding signal (z-score)” value was -0.268 in [13]; -0.241 in [14]; -0.261 in experiment [15]; -0.307 in experiment [16]; -0.282 in experiment [17]; -0.291 in [18]. In addition, the “glycan array binding signal (z-score)” value in [19] was -0.307.
